In PubChem BioAssay (NCI) one finds TGI data, which are given here for three compounds.

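Dose response: 5 concentrations. Exposure: 48 h. Format: 96-well plates. Endpoint: linear interpolation; highest concentration if not reached. TGI: total growth inhibition.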 For part of its entries the source gives two or more results. Only these are listed. There may be further records. For part of these data: A record mostly stands for its own series of concentrations, not given here; a value can be the end of its range. For part of these data: The values listed for one entry repeat one measurement in other runs, samples, wells, individuals or studies. A tag in brackets gives the origin of a value. Letters count within one entry.

Test systems include MALME-3M melanoma; PC-3 prostate; CCRF-CEM leukemia.
Common to all, as to assay: NCI tumour cell line growth inhibition, 48 h

Turning to `Cc1ccc(NC(=O)c2ccc(CN3CC[C@H](N(C)C)C3)c(C(F)(F)F)c2)cc1Nc1nccc(-c2cncnc2)n1`, the TGI with MALME-3M melanoma was 803 nM [sample A, mean of 2 tests] and > 10 µM [sample B, 1 test].
`CO[C@@H](C)Cn1c(=O)n(C)c2cnc3ccc(-c4cncc(C(C)(C)O)c4)cc3c21`: in the test on PC-3 prostate, the TGI is 22.4 µM [sample A, 1 test] and 916 nM [sample B, mean of 2 tests].
With `CCOC(=O)C(CC(C)C)NC(=O)C(Cc1ccc(N(CCCl)CCCl)cc1)NC(C)=O` (stereo not drawn), in the test on CCRF-CEM leukemia, the TGI is > 100 µM and 8.08 µM.
